From the supplement of paper PMC12217912
The list shows a part of the results. The full chains were built here from the parent and the listed change. Inactive controls read about 0.05.

B1: TEV protease; numbered along this chain (parent)
chain: MGESLFKGPRDYNPISSSICHLTNESDGHTTSLYGIGFGPFIITNKHLFRRNNGTLVVQSLHGVFKVKDTTTLQQHLVDGRDMIIIRMPKDFPPFPQKLKFREPQREERICLVTTNFQTKSMSSMVSDTSCTFPSGDGIFWKHWIQTKDGQCGSPLVSTRDGFIVGIHSASNFTNTNNYFTSVPKNFMELLTNQEAQQWVSGWRLNADSVLWGGHKVFMVKPEEPFQPVKEATQL

Variants of: B1
Assay: raw area under fraction-flipped curve 0-4 h after induction (AUC4h, not background-subtracted), DNA-recorder readout of cleavage of the substrate (dimensionless); higher = more cleavage of the substrate by the protease variant
Details: temperature: 34 °C; time window: 0-4 h after rhamnose induction
Experimental: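 In vivo DNA recorder in E. coli TOP10(DE3) ΔrhaA at 34 °C. Each TEVp single-site mutant (parent TEVp 0) is paired with a single-site variant of the 7-mer TEVs (canonical ENLYFQ|S). The substrate sits between flexible linkers in a Bxb1-sfGFP-TEVs-SsrA fusion, so cleavage stabilises Bxb1 and speeds flipping of a recombination array, read by NGS. The value is the raw area under the fraction-flipped curve over 0-4 h after rhamnose induction (AUC4h), with ≥20 reads per time point. It is not background-subtracted; inactive controls average about 0.047.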
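Further: Bxb1 expression induced with 0.2% (w/v) L-rhamnose at OD600 near 0.5, cultures sampled hourly, flipped fraction per protease–substrate barcode pair counted by paired-end Illumina sequencing.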

| Variant | area with substrate ENAYFQS | area with substrate ENDYFQS | area with substrate ENEYFQS | area with substrate ENFYFQS | area with substrate ENGYFQS | area with substrate ENHYFQS | area with substrate ENIYFQS | area with substrate ENKYFQS | area with substrate ENMYFQS | area with substrate ENQYFQS | area with substrate ENRYFQS | area with substrate ENSYFQS | area with substrate ENTYFQS | area with substrate ENVYFQS | area with substrate ENWYFQS | area with substrate ENNYFQS | area with substrate ENPYFQS | area with substrate ENCYFQS | area with substrate ENYYFQS |
| --- | --- | --- | --- | --- | --- | --- | --- | --- | --- | --- | --- | --- | --- | --- | --- | --- | --- | --- | --- |
| S209C | 0.116 | 0.058 | 0.0616 | 0.0663 | 0.0711 | 0.048 | 0.0975 | 0.0725 | 0.0947 | 0.0593 | 0.0641 | 0.0579 | 0.057 | 0.0645 | 0.0659 |  |  |  |  |
| R204E | 0.064 | 0.061 | 0.0613 |  |  |  |  | 0.0579 |  | 0.0634 | 0.0675 | 0.0587 | 0.0719 | 0.0847 |  | 0.065 | 0.0668 |  |  |
| R204N | 0.0632 | 0.0575 | 0.0592 | 0.0769 | 0.0606 | 0.0602 | 0.101 | 0.051 | 0.0902 | 0.0592 | 0.055 | 0.0701 | 0.0644 | 0.0811 |  | 0.06 |  | 0.0792 | 0.0584 |
| S201P | 0.0624 | 0.0614 | 0.0597 | 0.062 | 0.0525 |  |  | 0.0687 | 0.0536 | 0.0632 | 0.0694 | 0.0618 | 0.0608 | 0.0554 | 0.0545 | 0.0681 | 0.0581 | 0.0677 |  |
| F180I | 0.0559 | 0.0682 | 0.0513 | 0.0563 | 0.0436 | 0.0674 | 0.0425 |  | 0.0405 | 0.0518 | 0.0525 | 0.0258 | 0.0297 |  | 0.045 |  | 0.0568 | 0.0461 |  |
| M219Q | 0.0554 | 0.0632 | 0.0637 | 0.0503 | 0.0641 | 0.0536 | 0.0677 | 0.0603 | 0.0556 | 0.0633 | 0.0592 | 0.0532 | 0.0586 | 0.0621 |  |  | 0.0606 | 0.0604 | 0.0437 |
| M219D | 0.0586 | 0.0455 | 0.057 | 0.0592 | 0.0619 |  | 0.0779 | 0.062 |  | 0.063 | 0.0595 | 0.0584 | 0.0632 | 0.0665 | 0.0531 |  | 0.0596 | 0.06 | 0.0612 |
| M219L | 0.0597 |  | 0.0538 | 0.0636 |  | 0.0442 | 0.131 |  |  |  |  | 0.0283 | 0.0369 |  |  | 0.0578 | 0.0685 |  |  |
| M219R | 0.0592 | 0.0665 | 0.0693 | 0.0564 | 0.0707 | 0.0477 | 0.0593 |  | 0.0638 | 0.0504 | 0.0655 | 0.0674 | 0.0619 | 0.0589 |  | 0.049 | 0.0593 | 0.0635 | 0.0616 |
| V183C | 0.065 | 0.0596 | 0.0604 | 0.0616 | 0.0668 | 0.0685 | 0.102 |  |  | 0.0388 |  | 0.0552 | 0.0692 | 0.0685 | 0.0682 | 0.0636 | 0.0591 | 0.0608 | 0.0615 |
| N193P | 0.0653 | 0.0268 | 0.0625 | 0.0583 | 0.0627 | 0.0718 |  |  | 0.0396 | 0.0687 | 0.0446 | 0.0705 | 0.0659 | 0.0427 |  | 0.0695 | 0.0627 | 0.0666 | 0.0557 |
| L205N | 0.0604 | 0.046 | 0.0473 | 0.0636 |  | 0.0712 |  |  | 0.0749 | 0.057 |  |  | 0.072 |  |  | 0.0551 |  | 0.0686 |  |
| G214V | 0.0583 |  | 0.0684 | 0.0643 |  |  |  |  |  | 0.0614 | 0.0405 | 0.0559 | 0.0592 | 0.0572 |  | 0.0569 | 0.0835 | 0.0813 | 0.0584 |
| G202V | 0.058 | 0.048 | 0.076 |  |  | 0.0657 | 0.0648 | 0.0639 |  | 0.0547 | 0.0652 |  | 0.0394 |  | 0.0496 | 0.0581 | 0.0564 |  | 0.0353 |
| E195D | 0.0638 | 0.0636 | 0.0488 | 0.0518 |  | 0.0698 | 0.0897 | 0.0522 | 0.0673 | 0.0563 | 0.0564 | 0.0488 | 0.0694 | 0.0803 | 0.0055 | 0.0558 |  | 0.0659 | 0.0556 |
| T181G | 0.0555 | 0.0451 | 0.0511 | 0.0538 | 0.0502 |  |  |  | 0.0464 | 0.0569 | 0.0775 | 0.0643 |  | 0.0624 |  | 0.0594 |  |  | 0.0579 |
| M188L | 0.0369 | 0.0605 | 0.0548 |  |  |  |  |  |  | 0.0596 | 0.0567 |  | 0.0701 | 0.0685 |  | 0.0668 | 0.0576 | 0.0725 |  |
| T192D | 0.0454 | 0.0572 |  | 0.0691 | 0.0573 | 0.0607 | 0.0925 | 0.0554 |  | 0.0579 |  | 0.0651 | 0.0702 | 0.0644 | 0.0428 |  | 0.0685 | 0.0582 |  |
| T192P | 0.0621 | 0.0721 | 0.0601 | 0.0666 |  |  | 0.0818 |  | 0.0648 | 0.0663 | 0.0376 | 0.0635 | 0.0595 | 0.0576 | 0.0654 | 0.061 | 0.0498 | 0.0676 |  |
| T192Y | 0.0413 | 0.0743 | 0.0599 | 0.0579 |  | 0.0526 |  | 0.0636 |  |  |  |  | 0.0615 |  |  |  |  | 0.0694 |  |
| I164L | 0.0677 | 0.0577 | 0.0569 | 0.0636 | 0.0594 | 0.0624 | 0.0838 | 0.0639 | 0.0681 | 0.0587 | 0.0586 | 0.0574 | 0.0583 | 0.0663 | 0.005 | 0.0366 | 0.0468 | 0.0751 | 0.0571 |
| I164H | 0.0899 | 0.075 | 0.0489 | 0.0537 |  |  |  |  | 0.0438 | 0.0499 | 0.0521 | 0.0619 | 0.0517 | 0.0428 |  |  | 0.0483 | 0.0546 | 0.0646 |
| I164E | 0.0509 | 0.0508 | 0.0623 | 0.0603 | 0.0458 | 0.0569 | 0.123 | 0.0532 | 0.0699 | 0.0487 |  | 0.0516 |  | 0.0564 |  |  | 0.0549 | 0.048 |  |
| F218H | 0.047 | 0.0524 | 0.0693 | 0.0618 | 0.0691 |  |  | 0.0424 |  | 0.0753 |  | 0.0738 | 0.0536 | 0.0702 |  |  | 0.0644 | 0.097 |  |
| S182W | 0.0449 | 0.0226 | 0.0493 |  | 0.0614 | 0.0606 |  | 0.0349 | 0.0623 | 0.0586 | 0.0606 | 0.0814 |  |  | 0.0218 |  | 0.0351 |  |  |
